In paper PMC9860685, “α-Crystallin Domains of Five Human Small Heat Shock Proteins (sHsps) Differ in Dimer Stabilities and Ability to Incorporate Themselves into Oligomers of Full-Length sHsps” (International Journal of Molecular Sciences, 2023):

Experiments:
[1] = target: the molecule itself; test: SEC-MALS; Superdex 200 Increase 10/300, 20 mM Tris–HCl pH 7.5, 150 mM NaCl, 3 mM β-mercaptoethanol; 2 mg/mL, 90 µL loaded
full-length HspB6 = target: T1, full-length HspB6 (human, UniProt O14558 1-160); test: native gel or EMSA; clear native PAGE, 12.5% gel, 80 mM glycine–Tris pH 8.6; sHsp 5–6 μM per monomer mixed with ACD 20–24 μM per monomer, 30 min at 25 °C in buffer B; Western blot with anti-HspB6 for the complexes of HspB6; conditions: both partners purified
T1 construct: Predominantly dimeric by cited work; also called B6FL
T1 sequence (looked up): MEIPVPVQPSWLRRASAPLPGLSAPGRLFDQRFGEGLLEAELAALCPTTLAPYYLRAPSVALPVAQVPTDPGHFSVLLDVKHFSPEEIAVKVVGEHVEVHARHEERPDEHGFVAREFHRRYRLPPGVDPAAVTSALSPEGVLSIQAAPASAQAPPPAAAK

[2] = target: T2, 3D mutant of HspB1 (S15D, S78D, S82D) (human, UniProt P04792, S15D | S78D | S82D); test: SEC; full-length sHsp (~19–20 μM per monomer) mixed with ACD (38–110 μM per monomer) in buffer B, 30 min at 42 °C; Superdex 200 Increase column in 50 mM phosphate pH 7.4, 150 mM NaCl, 2 mM DTT; fractions analysed by SDS–PAGE; conditions: both partners purified
T2 construct: human HspB1, full length, with three phosphomimicking point mutations; Forms small oligomers (probably dimers or tetramers, by cited work); also called full-length 3D mutant

[3] = target: the molecule itself; test: SEC; Superdex 75 10/300 GL, 50 mM phosphate pH 7.4, 150 mM NaCl, 2 mM DTT; 25 μL samples of 16–150 μg (25–600 μM per monomer); apparent dissociation constant, dimer to monomers, from a hyperbolic fit of elution volume against the concentration loaded

binding result (full-length HspB6): binds
binding result [2]: binds
B1: α-crystallin domain of HspB1 (B1ACD) (domain or fragment)
chain: not shown
notes: human HspB1, α-crystallin domain, […]; Cloned by NdeI and XhoI into pET23b; In equilibrium of monomers and dimers; also called HspB1 ACD; source: E. coli, purified (ammonium sulfate fractionation, ion-exchange chromatography, size-exclusion chromatography)
stoichiometry N [1]: 2
Kd [3]: 27 µM
